From PubChem BioAssay AID1347073 (National Center for Advancing Translational Sciences (NCATS), 2019)
In all, about 45,000 compounds went through this assay and about 200 (0.44%) were called active. This list was built around the results that the source calls inconclusive (neither active nor inactive); the mix of calls is not that of the screen. Calls follow the shape of the dose curve; as a rule, active = well fitted activation curve with a large enough effect; inconclusive = small, poorly fitted or top-dose-only effect; inactive = no such curve, though single readings can be large or run the other way. Where the call is inconclusive, the potency comes from a doubtful curve fit.

assay: qHTS of TDP-43 Inhibitors: NCGC Sytravon Library Screen; conditions: yeast TDP-43 toxicity rescue, BacTiter-Glo growth, 24 h; growth rescue (activation): at 46.1 µM (top of the series); also: nearly all actives have a fitted effect of over 55% in size; as to growth rescue (activation): 0% is about no effect
Procedure, shortened: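 TDP-43-expressing yeast, pregrown in raffinose, seeded at OD600 0.02 in galactose medium with compound for 24 hr at 30 deg C. Growth read by BacTiter-Glo luminescence, so rescue of toxicity appears as activation.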
Potency is read from the fitted curve at half-maximal effect; tags tell the direction and shape of the fitted curve.

SMILES	Potency	growth rescue (activation)
Cc1c(Cl)cccc1Nc1nc(N)nc(CSc2nc3ccccc3s2)n1	inconclusive: 20 µM [activator, partial curve, poor fit]	
Cc1cccc(C)c1NC(=S)Nc1ccc(Cl)c(Cl)c1	inconclusive: 17.8 µM [activator, partial curve, poor fit]	
COc1cccc(C(O)c2nc(-c3ccc(C)c(C)c3)cs2)c1 (stereo unspecified)	inconclusive: 12.6 µM [activator, partial curve, poor fit]	
COc1ccc(Cl)cc1NC(=O)CN(C)S(=O)(=O)c1cccs1	inconclusive: 17.8 µM [activator, partial curve, poor fit]	
COc1cccc(NS(=O)(=O)c2cc(C)sc2C)c1	inconclusive: 35.5 µM [activator, partial curve, poor fit]	
COc1ccc(CCNC(=O)c2cc(S(=O)(=O)N(C)c3ccccc3)ccc2Cl)cc1	inconclusive: 35.5 µM [activator, partial curve, poor fit]	
CC(CC(=O)Nc1cccc(Cl)c1)c1ccccc1 (stereo unspecified)	inconclusive: 31.6 µM [activator, single point]	
COc1cccc(CC(=O)Nc2ccc3c(c2)CCC3)c1	inconclusive: 20 µM [activator, partial curve, poor fit]	
COc1ccc(NC(=O)C2(C)Cc3c(-c4cccc(C(F)(F)F)c4)ccnc3O2)cn1 (stereo unspecified)		inconclusive: 37.6% [activator]
COc1ccc(Cl)cc1-c1cc(C(=O)NCc2ccco2)[nH]n1	inconclusive: 22.4 µM [activator, single point]	
COC(=O)CSc1nc(C)cc(C)c1C#N	inactive	
Cc1nc2ccccn2c1C(=O)CSc1cccc(Cl)c1	inconclusive: 12.6 µM [activator, partial curve, poor fit]	
CC(C)(C)N1C(=O)Cc2c1nc(N)c1c(N)nc(N3CCCCC3CO)c(C#N)c21 (stereo unspecified)	inactive	
Cc1cccc(N2C(=O)C(Oc3ccc(Cl)cc3Cl)C2C(=O)O)c1C (stereo unspecified)	inconclusive: 12.6 µM [activator, partial curve]	
CC1CCC2(CC1)NC(=O)N(CC(=O)Nc1ccc3c(c1)CCC3)C2=O (stereo unspecified)	inconclusive: 22.4 µM [activator, single point]	
CCOC(=O)C1CCN(C(=O)/C=C/c2cccs2)CC1	inactive	
COc1ccc(-n2nc(C(=O)NCC(=O)N3CCC(C)CC3)c3ccccc3c2=O)cc1Cl	active: 17.8 µM	
O=C(c1cc(-c2ccco2)nc2ccccc12)N1CCN(c2ccc(F)cc2)CC1	inconclusive: 35.5 µM [activator, single point]	
Cc1ccc(NC(=O)c2nc(S(=O)(=O)Cc3ccccc3C)ncc2Cl)cc1C	inconclusive: 3.16 µM [activator, partial curve, poor fit]	
COc1ccc(Nc2nc3cc(-c4sccc4C)sc3c(=O)n2C)cc1OC	inconclusive: 28.2 µM [activator, single point]	
COc1cc([N+](=O)[O-])ccc1NC(=O)Cn1ccsc1=N	inconclusive: 12.6 µM [activator, partial curve, poor fit]	
COc1cc(C(=O)ONC(=O)c2ccc(OC(F)F)cc2)cc(OC)c1OC	inconclusive: 22.4 µM [activator, single point]	

SMILES	Potency	growth rescue (activation)
CCOC(=O)C1CCN(CC(=O)N2CCc3ccccc32)CC1		inconclusive: 10.1% [activator]
CCOc1ccccc1NC(=S)N(CCOC)C1CCN(C(C)=O)CC1	inconclusive: 35.5 µM [activator, single point]	
NC(=O)C1(N2CCCCC2)CCN(C(=O)Nc2ccc(F)cc2F)CC1	inactive	
COc1cccc(C(C)(O)c2nc(-c3ccccc3OC)cs2)c1 (stereo unspecified)	inconclusive: 17.8 µM [activator, single point]	
O=C(CNS(=O)(=O)c1ccc2ccccc2c1)OCc1csc(-c2ccccc2)n1	inconclusive: 15.8 µM [activator, single point]	
CCN(CC)S(=O)(=O)c1cccc2c(N(C)C)cccc12	inconclusive: 35.5 µM [activator, single point]	
Cc1nc([N+](=O)[O-])c(C(=O)OCc2ccccc2)n1C	inactive	
Cc1ccc2nc(-c3ccc(NS(=O)(=O)c4ccc(F)c(F)c4)cc3)sc2c1	inconclusive: 15.8 µM [activator, partial curve, poor fit]	
CCN(Cc1ccc2c(c1)OCO2)C(=O)/C=C/c1cccc(Br)c1	inconclusive: 11.2 µM [activator, partial curve, poor fit]	
CCCc1ccc2oc(C(=O)NCCc3cnn(C)c3)c(C)c2c1	inconclusive: 11.2 µM [activator, partial curve, poor fit]	
CC1CCN(c2ccccc2NC(=S)NC(=O)C(C)(C)C)CC1	inconclusive: 22.4 µM [activator, partial curve, poor fit]	
C/C(=N\Nc1ccc(Cl)c(C(=O)O)c1)c1ccc(Br)s1	inconclusive: 20 µM [activator, single point]	
Cc1ccccc1-c1nnc(SCC(=O)N(C)C2CCCCC2)o1	inconclusive: 12.6 µM [activator, partial curve, poor fit]	
Cc1ccc(SCCNC(=O)/C=C/c2ccc([N+](=O)[O-])cc2)cc1	inconclusive: 22.4 µM [activator, single point]	
COc1ccc(NC(=O)c2cc(F)c(F)cc2Cl)cc1Cl	inconclusive: 14.1 µM [activator, single point]	
COc1cc(C(=O)N2CCC2(C)C(=O)O)cc(OC)c1OC (stereo unspecified)	inactive	
Cc1cc(C)c(C)c(S(=O)(=O)Nc2ccccc2C(=O)NN2CCOCC2)c1C	inactive	
Brc1ccc(Sc2cnc3ccccc3n2)cc1	inconclusive: 17.8 µM [activator, partial curve, poor fit]	
CCCCNC(=O)COCc1cc(-c2ccc3c(c2)OCO3)on1	inconclusive: 14.1 µM [activator, partial curve, poor fit]	
O=C(COC(=O)CC1CCCC1)Nc1ccc(OC(F)F)cc1	inconclusive: 35.5 µM [activator, single point]	
Cc1cccnc1NC(=S)NCCc1ccccc1	inconclusive: 17.8 µM [activator, partial curve]	
CCc1ccc(NC(=O)CO/N=C(\C)c2cc3ccccc3o2)cc1	inconclusive: 17.8 µM [activator, partial curve, poor fit]	

SMILES	Potency	growth rescue (activation)
O=C(O)c1cc(-c2ccc(Cl)cc2)n(-c2cccc(Cl)c2)n1	inconclusive: 35.5 µM [activator, single point]	
O=C(Nc1nc2ccc3ccccc3c2s1)c1ccc(N2CCCCC2)c([N+](=O)[O-])c1	inactive	
NNC(=O)c1cc2cc3ccccc3nc2s1	inconclusive: 35.5 µM [activator, single point]	
O=C(COC(=O)c1nc(Cl)ccc1Cl)NCc1ccc(Cl)cc1Cl	inconclusive: 12.6 µM [activator, partial curve, poor fit]	
Cc1ccc(COC(=O)CCc2nc3ccccc3c(=O)[nH]2)cc1	inconclusive: 35.5 µM [activator, single point]	
O=C(O)/C=C/c1cn(-c2ccccc2)nc1-c1ccc2c(c1)OCCO2	inconclusive: 28.2 µM [activator, single point]	
Cc1ccc(S(=O)(=O)Nc2cccc3cccnc23)cc1	inconclusive: 28.2 µM [activator, single point]	
O=C(CCC(=O)N1CCSc2ccccc21)NCc1ccccc1Cl	inactive	
C/C(=N\OCC(=O)Nc1c(C)cc(C)cc1C)c1ccc2c(c1)OCCO2	inconclusive: 35.5 µM [activator, single point]	
Nc1c(-c2ccccc2)c(CSc2nc3ccccc3[nH]2)nn1-c1ccc(Cl)cc1	inconclusive: 20 µM [activator, single point]	
CC1CCC(NC(=O)C2CCC(CNc3c(N4CCCCC4)c(=O)c3=O)CC2)CC1 (stereo unspecified)	inconclusive: 35.5 µM [activator, single point]	
COc1ccccc1CNC(=O)C1CCCCN1S(=O)(=O)c1ccccc1 (stereo unspecified)	inactive	
O=S(=O)(c1ccc(Cl)nc1)N1CCCc2ccccc21	inconclusive: 14.1 µM [activator, partial curve, poor fit]	
Cc1ccc(/C=N/NC(=O)CSc2nc3ccccc3n2Cc2ccc(Cl)cc2)o1	inconclusive: 31.6 µM [activator, single point]	
CCN(CC)c1ccc(N)cc1S(=O)(=O)Nc1ccc(OC)cc1	inconclusive: 25.1 µM [activator, partial curve, poor fit]	
Cc1cccc(CCNC(=O)CCc2c(C)nc3c4c(C)cc(C)nc4nn3c2C)c1	inactive	
C/C(=C\C(=S)Nc1ccccc1)Nc1ccccc1	inconclusive: 15.8 µM [activator, partial curve, poor fit]	
Cc1ccc(NC(=O)CCn2cccc2)cc1Cl	inconclusive: 35.5 µM [activator, single point]	
CN(C)/C=C(\C#N)S(=O)(=O)C(C)(C)C		inconclusive: -30.8% [activator]
O=C(CN1C(=O)NC2(CCOc3ccccc32)C1=O)NCc1ccccc1 (stereo unspecified)	inactive	
CCCCN(C)c1c(C)nc2ccc(C(=O)Nc3cc(-c4ccccc4)ccc3OC)cn12	inconclusive: 17.8 µM [activator, single point]	
c1ccc(N=Nc2cn[nH]c2-c2ccco2)cc1	inconclusive: 22.4 µM [activator, single point]	
